Measured values published in PMC12272249, “Engineering high-efficiency matriptase substrates using E. coli display for applications in prodrug activation” (Cell Reports Methods, 2025).

Target: T1, matriptase (Homo sapiens, UniProt Q9Y5Y6)
T1 construct: purchased R&D Systems (Bio-Techne) 3946-SEB
T1 sequence (Q9Y5Y6 615-855 limits assumed): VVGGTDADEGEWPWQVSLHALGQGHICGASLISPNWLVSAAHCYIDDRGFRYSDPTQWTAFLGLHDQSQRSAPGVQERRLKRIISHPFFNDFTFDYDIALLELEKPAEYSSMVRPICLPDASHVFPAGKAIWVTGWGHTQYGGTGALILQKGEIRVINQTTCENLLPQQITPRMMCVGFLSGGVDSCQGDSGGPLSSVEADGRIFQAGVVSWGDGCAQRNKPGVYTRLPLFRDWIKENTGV
Experiment: E. coli display cleavage reporter assay, flow cytometry, matriptase treatment
Details: E. coli-displayed substrate, 1 nM matriptase, 90 min, loss of cleavage reporter relative to untreated controls, two replicates
Description: A volume of the glycerol stock sufficient to encompass the library’s diversity at least 10x was inoculated into fresh LB media supplemented with carbenicillin (100 μg/mL). The cultures were grown overnight, diluted to an OD600 of 0.1 in fresh LB media, and induced with 0.6% arabinose once they reached an OD600 of 0.7. After overnight incubation, the induced cell cultures were harvested, washed twice with PBS supplemented with 1% Pluronic acid (PBS-P), and treated with matriptase (50–10 nM) for 30 min at 37°C. […] The sorting gate was placed to retain cells with expression reporter signal but reduced cleavage reporter signal. Sorted cells were grown in LB media with carbenicillin, aliquoted as glycerol stocks, and stored at −80°C. Single colonies from plated dilutions were picked for further analysis.
Negative values were set to zero.

Row | Substance | percentage of cleaved substrate
1 | GAKSRR [MtpB9] | over 50%
2 | VPRGRR [MtpC5] | over 50%
3 | HYKGRK [MtpC9] | over 50%
